# This is one part of the list.
# B1: FliC (Pseudomonas aeruginosa), P72151 (protein)
# chain: MALTVNTNIASLNTQRNLNASSNDLNTSLQRLTTGYRINSAKDDAAGLQISNRLSNQISGLNVATRNANDGISLAQTAEGALQQSTNILQRIRDLALQSANGSNSDADRAALQKEVAAQQAELTRISDTTTFGGRKLLDGSFGTTSFQVGSNAYETIDISLQNASASAIGSYQVGSNGAGTVASVAGTATASGIASGTVNLVGGGQVKNIAIAAGDSAKAIAEKMDGAIPNLSARARTVFTADVSGVTGGSLNFDVTVGSNTVSLAGVTSTQDLADQLNSNSSKLGITASINDKGVLTITSATGENVKFGAQTGTATAGQVAVKVQGSDGKFEAAAKNVVAAGTAATTTIVTGYVQLNSPTAYSVSGTGTQASQVFGNASAAQKSSVASVDISTADGAQNAIAVVDNALAAIDAQRADLGAVQNRFKNTIDNLTNISENATNARSRIKDTDFAAETAALSKNQVLQQAGTAILAQANQLPQAVLSLLR
# Tests used:
# Test in all cases: glycan array binding signal (z-score within array); higher = stronger binding
# Conditions in all cases: glycan notation: IUPAC condensed, linker removed
# [1] = target: Man(a1-2)Man(a1-3)[Man(a1-2)Man(a1-6)]Man(a1-6)[Man(a1-2)Man(a1-2)Man(a1-3)]Man
# In short: (§1)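 The binding signal is a Z-score computed within each array. Data were drawn from 3228 arrays in the Consortium for Functional Glycomics database, restricted to those with a known protein sequence. Scores were averaged over arrays of the same protein sequence at different concentrations or buffers, and over linkers, and negative values can be taken as non-binding.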
# [2] = target: Man(a1-2)Man(a1-3)[Man(a1-2)Man(a1-6)]Man(a1-6)[Man(a1-2)Man(a1-2)Man(a1-3)]Man(b1-4)GlcNAc(b1-4)GlcNAc
# In short: as §1
# [3] = target: Man(a1-2)Man(a1-3)[Man(a1-6)]Man(a1-6)[Man(a1-2)Man(a1-3)]Man(b1-4)GlcNAc(b1-4)GlcNAc
# In short: as §1
# [4] = target: Man(a1-2)Man(a1-6)[Man(a1-3)]Man(a1-6)[Man(a1-2)Man(a1-2)Man(a1-3)]Man
# In short: as §1
# [5] = target: Man(a1-2)Man(a1-6)[Man(a1-3)]Man(a1-6)[Man(a1-2)Man(a1-2)Man(a1-3)]Man(b1-4)GlcNAc(b1-4)GlcNAc
# In short: as §1
# Man(a1-3)[Man(a1-6)]Man = target: Man(a1-3)[Man(a1-6)]Man
# In short: as §1
# [6] = target: Man(a1-3)[Man(a1-6)]Man(a1-6)[Man(a1-2)Man(a1-3)]Man(b1-4)GlcNAc(b1-4)GlcNAc
# In short: as §1
# [7] = target: Man(a1-3)[Man(a1-6)]Man(a1-6)[Man(a1-3)]Man
# In short: as §1
# [8] = target: Man(a1-3)[Man(a1-6)]Man(a1-6)[Man(a1-3)]Man(b1-4)GlcNAc(b1-4)GlcNAc
# In short: as §1
# [9] = target: Man(a1-3)[Man(a1-6)]Man(b1-4)GlcNAc(b1-4)GlcNAc
# In short: as §1
# [10] = target: Man(a1-3)[Man(a1-6)]Man(b1-4)GlcNAc(b1-4)[Fuc(a1-6)]GlcNAc
# In short: as §1
# Man(a1-6)Man = target: Man(a1-6)Man
# In short: as §1
# Man(b1-4)GlcNAc = target: Man(b1-4)GlcNAc
# In short: as §1
# MurNAc(b1-4)GlcNAc = target: MurNAc(b1-4)GlcNAc
# In short: as §1
# Neu5Ac(a2-3)Gal = target: Neu5Ac(a2-3)Gal
# In short: as §1
# [11] = target: Neu5Ac(a2-3)Gal(b1-3)GalNAc
# In short: as §1
# [12] = target: Neu5Ac(a2-3)Gal(b1-3)GalNAc(b1-3)Gal(a1-4)Gal(b1-4)Glc
# In short: as §1
# [13] = target: Neu5Ac(a2-3)Gal(b1-3)GalNAc(b1-4)[Neu5Ac(a2-3)]Gal(b1-4)Glc
# In short: as §1
# [14] = target: Neu5Ac(a2-3)Gal(b1-3)GalNAc(b1-4)[Neu5Ac(a2-8)Neu5Ac(a2-3)]Gal(b1-4)Glc
# In short: as §1
# [15] = target: Neu5Ac(a2-3)Gal(b1-3)GalNAc6S
# In short: as §1
# [16] = target: Neu5Ac(a2-3)Gal(b1-3)GlcNAc
# In short: as §1
# [17] = target: Neu5Ac(a2-3)Gal(b1-3)GlcNAc(b1-2)Man
# In short: as §1
# [18] = target: Neu5Ac(a2-3)Gal(b1-3)GlcNAc(b1-2)Man(a1-3)[GlcNAc(b1-4)][Neu5Ac(a2-3)Gal(b1-3)GlcNAc(b1-2)Man(a1-6)]Man(b1-4)GlcNAc(b1-4)GlcNAc
# In short: as §1
# [19] = target: Neu5Ac(a2-3)Gal(b1-3)GlcNAc(b1-2)Man(a1-3)[Neu5Ac(a2-3)Gal(b1-3)GlcNAc(b1-2)Man(a1-6)]Man(b1-4)GlcNAc(b1-4)GlcNAc
# In short: as §1
# [20] = target: Neu5Ac(a2-3)Gal(b1-3)GlcNAc(b1-3)Gal(b1-3)GlcNAc
# In short: as §1
# [21] = target: Neu5Ac(a2-3)Gal(b1-3)GlcNAc(b1-3)Gal(b1-4)GlcNAc
# In short: as §1
# [22] = target: Neu5Ac(a2-3)Gal(b1-3)GlcNAc(b1-3)GalNAc
# In short: as §1
# [23] = target: Neu5Ac(a2-3)Gal(b1-3)GlcNAc(b1-4)Gal(b1-4)Glc
# In short: as §1
# [24] = target: Neu5Ac(a2-3)Gal(b1-3)GlcNAc(b1-6)GalNAc
# In short: as §1
# [25] = target: Neu5Ac(a2-3)Gal(b1-3)GlcNAc6S
# In short: as §1
# [26] = target: Neu5Ac(a2-3)Gal(b1-3)[Fuc(a1-4)]GlcNAc
# In short: as §1
# [27] = target: Neu5Ac(a2-3)Gal(b1-3)[Fuc(a1-4)]GlcNAc(b1-3)Gal(b1-3)[Fuc(a1-4)]GlcNAc
# In short: as §1
# [28] = target: Neu5Ac(a2-3)Gal(b1-3)[Fuc(a1-4)]GlcNAc(b1-3)Gal(b1-4)[Fuc(a1-3)]GlcNAc
# In short: as §1
# [29] = target: Neu5Ac(a2-3)Gal(b1-3)[GlcNAc(b1-6)]GalNAc
# In short: as §1
# [30] = target: Neu5Ac(a2-3)Gal(b1-3)[Neu5Ac(a2-6)]GalNAc
# In short: as §1
# [31] = target: Neu5Ac(a2-3)Gal(b1-3)[Neu5Ac(a2-6)]GlcNAc(b1-3)[Fuc(a1-3)[Gal(b1-4)]GlcNAc(b1-6)]Gal(b1-4)Glc
# In short: as §1
# [32] = target: Neu5Ac(a2-3)Gal(b1-3)]Neu5Ac(a2-3)Gal(b1-4)]GlcNAc
# In short: as §1
# Neu5Ac(a2-3)Gal(b1-4)Glc = target: Neu5Ac(a2-3)Gal(b1-4)Glc
# In short: as §1
# [33] = target: Neu5Ac(a2-3)Gal(b1-4)GlcNAc
# In short: as §1
# [34] = target: Neu5Ac(a2-3)Gal(b1-4)GlcNAc(b1-2)Man
# In short: as §1
# [35] = target: Neu5Ac(a2-3)Gal(b1-4)GlcNAc(b1-2)Man(a1-3)[GlcNAc(b1-4)][Neu5Ac(a2-3)Gal(b1-4)GlcNAc(b1-2)Man(a1-6)]Man(b1-4)GlcNAc(b1-4)GlcNAc
# In short: as §1
# [36] = target: Neu5Ac(a2-3)Gal(b1-4)GlcNAc(b1-2)Man(a1-3)[Neu5Ac(a2-3)Gal(b1-4)GlcNAc(b1-2)Man(a1-6)]Man(b1-4)GlcNAc(b1-4)GlcNAc
# In short: as §1
# [37] = target: Neu5Ac(a2-3)Gal(b1-4)GlcNAc(b1-2)Man(a1-3)[Neu5Ac(a2-3)Gal(b1-4)GlcNAc(b1-2)Man(a1-6)]Man(b1-4)GlcNAc(b1-4)[Fuc(a1-6)]GlcNAc
# In short: as §1
# [38] = target: Neu5Ac(a2-3)Gal(b1-4)GlcNAc(b1-2)Man(a1-3)[Neu5Ac(a2-6)Gal(b1-4)GlcNAc(b1-2)Man(a1-6)]Man(b1-4)GlcNAc(b1-4)GlcNAc
# In short: as §1
# [39] = target: Neu5Ac(a2-3)Gal(b1-4)GlcNAc(b1-2)[Neu5Ac(a2-3)Gal(b1-4)GlcNAc(b1-4)]Man(a1-3)[GlcNAc(b1-4)][Neu5Ac(a2-3)Gal(b1-4)GlcNAc(b1-2)[Neu5Ac(a2-3)Gal(b1-4)GlcNAc(b1-6)]Man(a1-6)]Man(b1-4)GlcNAc(b1-4)GlcNAc
# In short: as §1
binder,measurement,setting,value
B1,glycan array binding signal (z-score),[1],-0.179
same,glycan array binding signal (z-score),[2],-0.189
same,glycan array binding signal (z-score),[3],-0.253
same,glycan array binding signal (z-score),[4],0.038
same,glycan array binding signal (z-score),[5],-0.129
same,glycan array binding signal (z-score),Man(a1-3)[Man(a1-6)]Man,-0.107
same,glycan array binding signal (z-score),[6],-0.136
same,glycan array binding signal (z-score),[7],-0.152
same,glycan array binding signal (z-score),[8],-0.225
same,glycan array binding signal (z-score),[9],-0.137
same,glycan array binding signal (z-score),[10],-0.001
same,glycan array binding signal (z-score),Man(a1-6)Man,-0.226
same,glycan array binding signal (z-score),Man(b1-4)GlcNAc,-0.177
same,glycan array binding signal (z-score),MurNAc(b1-4)GlcNAc,-0.133
same,glycan array binding signal (z-score),Neu5Ac(a2-3)Gal,-0.141
same,glycan array binding signal (z-score),[11],-0.069
same,glycan array binding signal (z-score),[12],-0.128
same,glycan array binding signal (z-score),[13],-0.231
same,glycan array binding signal (z-score),[14],-0.183
same,glycan array binding signal (z-score),[15],1.19
same,glycan array binding signal (z-score),[16],-0.187
same,glycan array binding signal (z-score),[17],-0.176
same,glycan array binding signal (z-score),[18],0.037
same,glycan array binding signal (z-score),[19],0.057
same,glycan array binding signal (z-score),[20],0.56
same,glycan array binding signal (z-score),[21],-0.18
same,glycan array binding signal (z-score),[22],-0.174
same,glycan array binding signal (z-score),[23],-0.154
same,glycan array binding signal (z-score),[24],-0.161
same,glycan array binding signal (z-score),[25],-0.217
same,glycan array binding signal (z-score),[26],-0.192
same,glycan array binding signal (z-score),[27],-0.186
same,glycan array binding signal (z-score),[28],-0.173
same,glycan array binding signal (z-score),[29],-0.169
same,glycan array binding signal (z-score),[30],-0.034
same,glycan array binding signal (z-score),[31],-0.133
same,glycan array binding signal (z-score),[32],-0.125
same,glycan array binding signal (z-score),Neu5Ac(a2-3)Gal(b1-4)Glc,-0.108
same,glycan array binding signal (z-score),[33],-0.171
same,glycan array binding signal (z-score),[34],-0.083
same,glycan array binding signal (z-score),[35],-0.188
same,glycan array binding signal (z-score),[36],-0.103
same,glycan array binding signal (z-score),[37],20.9
same,glycan array binding signal (z-score),[38],-0.156
same,glycan array binding signal (z-score),[39],8.36

# Reference: the supplement of paper PMC8728848
